Laboratory results reported in PMC4336329 (PLoS ONE, 2015).
Out of some 310,000 compounds screened, about 14,000 (4.5%) showed an effect of 50% or more. Effects have a minus sign here. Some of the results follow.
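Also: peak tail current of the secondary pulse compared with the same well before compound.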

Each compound was assayed against human ether-à-go-go-related gene (hERG) potassium channel (human, UniProt Q12809) (assay: primary screen, population patch clamp on CHO cells stably expressing hERG).
Chain of human ether-à-go-go-related gene (hERG) potassium channel (Q12809 whole entry, looked up): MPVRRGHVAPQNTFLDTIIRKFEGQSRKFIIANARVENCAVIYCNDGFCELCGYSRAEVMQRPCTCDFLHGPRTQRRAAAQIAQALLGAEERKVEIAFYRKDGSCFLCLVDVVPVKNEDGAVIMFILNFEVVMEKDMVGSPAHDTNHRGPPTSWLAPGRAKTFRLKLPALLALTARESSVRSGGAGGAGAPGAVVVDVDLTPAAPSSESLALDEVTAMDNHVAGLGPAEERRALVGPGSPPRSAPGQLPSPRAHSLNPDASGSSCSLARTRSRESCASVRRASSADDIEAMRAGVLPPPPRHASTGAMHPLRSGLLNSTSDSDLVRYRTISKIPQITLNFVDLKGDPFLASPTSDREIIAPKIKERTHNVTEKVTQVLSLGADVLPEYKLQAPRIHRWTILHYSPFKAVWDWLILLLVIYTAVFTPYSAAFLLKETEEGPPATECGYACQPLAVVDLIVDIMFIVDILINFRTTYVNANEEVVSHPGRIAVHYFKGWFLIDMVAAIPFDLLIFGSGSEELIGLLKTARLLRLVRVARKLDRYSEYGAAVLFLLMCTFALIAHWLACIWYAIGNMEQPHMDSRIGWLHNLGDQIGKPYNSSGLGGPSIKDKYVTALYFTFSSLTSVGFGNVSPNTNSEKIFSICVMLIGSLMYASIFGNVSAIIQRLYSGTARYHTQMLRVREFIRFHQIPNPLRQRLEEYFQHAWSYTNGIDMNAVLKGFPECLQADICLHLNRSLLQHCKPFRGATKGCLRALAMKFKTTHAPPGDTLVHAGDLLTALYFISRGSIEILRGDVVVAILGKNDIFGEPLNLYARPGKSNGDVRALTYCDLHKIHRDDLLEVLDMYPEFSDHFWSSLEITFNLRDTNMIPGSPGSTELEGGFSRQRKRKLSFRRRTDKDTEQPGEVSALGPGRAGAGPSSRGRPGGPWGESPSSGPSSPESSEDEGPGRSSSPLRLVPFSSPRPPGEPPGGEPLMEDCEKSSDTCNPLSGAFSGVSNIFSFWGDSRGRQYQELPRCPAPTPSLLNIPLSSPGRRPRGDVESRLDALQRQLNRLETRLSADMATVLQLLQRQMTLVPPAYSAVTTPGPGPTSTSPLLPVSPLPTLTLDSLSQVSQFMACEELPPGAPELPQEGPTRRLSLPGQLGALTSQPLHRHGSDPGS
For `CCOC(=O)C(CC)Sc1nnc2c3cc(C)ccc3n(C)c2n1` (stereo not shown), the “hERG current change (%, negative = inhibition) at 10uM” value was -4.52%. With `CCOC(=O)c1sc(=NC(=O)c2cc(OC)c(OC)c(OC)c2)n(C)c1C` the “hERG current change (%, negative = inhibition) at 10uM” value was -6.86%. `O=C(NCc1ccc(F)cc1)C1CC(=O)N(Cc2ccco2)C1` (stereo not shown) was tested, and the “hERG current change (%, negative = inhibition) at 10uM” value was -17%. In the case of `O=C(CSc1nnc(COc2ccccc2)o1)N1CCCC1`, the “hERG current change (%, negative = inhibition) at 10uM” value is reported as -2.25%. With `O=C(NCc1cccs1)C1CCN(S(=O)(=O)c2ccc(Cl)cc2)CC1` the “hERG current change (%, negative = inhibition) at 10uM” value was 4.41%. For `Cc1cccc(N(C(=O)c2snc(C(N)=O)c2N)C(C(=O)NC2CCCC2)c2ccc(C)o2)c1` (stereo not shown), the “hERG current change (%, negative = inhibition) at 10uM” value was 17.6%. In the case of `COc1cccc(C(=O)N2CCOCC2)c1`, the “hERG current change (%, negative = inhibition) at 10uM” value is reported as 20.2%. In the case of `CC(=O)NC1CC2CCCC(C1)N2S(=O)(=O)c1ccccc1` (stereo not shown), the “hERG current change (%, negative = inhibition) at 10uM” value is reported as 16.3%. With `Cc1cc(Cl)ccc1NC(=O)C1COc2ccccc2O1` (stereo not shown) the “hERG current change (%, negative = inhibition) at 10uM” value was -25.5%. With `COc1ccc(S(=O)(=O)NCC(c2cccnc2)N2CCN(C)CC2)cc1C` (stereo not shown) the “hERG current change (%, negative = inhibition) at 10uM” value was -62.9%. `CC(Sc1nnc(CNC(=O)c2ccccc2F)n1C)C(=O)Nc1nccs1` (stereo not shown) was tested, and the “hERG current change (%, negative = inhibition) at 10uM” value was 18.1%. With `CCOC(=O)CNC(=S)SC` the “hERG current change (%, negative = inhibition) at 10uM” value was 3.34%. For `CSc1nc(Oc2cccc(C(F)(F)F)c2)cc(C(F)(F)F)n1`, the “hERG current change (%, negative = inhibition) at 10uM” value was 17.1%. For `N#CNC(=Nc1ccccc1)SCc1ccc(C(=O)O)cc1`, the “hERG current change (%, negative = inhibition) at 10uM” value was 4.72%. `COc1ccc(C2=NOC(C(=O)Nc3ccc4c(c3)OCO4)C2)cc1OC` (stereo not shown) was tested, and the “hERG current change (%, negative = inhibition) at 10uM” value was -4.72%. For `COc1cc2[nH]c(=O)n(-c3ccccc3)c(=O)c2cc1OC`, the “hERG current change (%, negative = inhibition) at 10uM” value was 15.9%. `CN(Cc1ccccc1)C(=O)c1cccnc1` was tested, and the “hERG current change (%, negative = inhibition) at 10uM” value was 0.506%. With `C=CCn1c(SCC(=O)N(CCO)CCO)nc2sc3c(c2c1=O)CCC3` the “hERG current change (%, negative = inhibition) at 10uM” value was 0.851%. For `O=C(NC(c1ccccc1)C(Cl)(Cl)Cl)c1ccccc1` (stereo not shown), the “hERG current change (%, negative = inhibition) at 10uM” value was -11.3%. In the case of `O=C(CCCCCNC(=O)N1CCn2c1nc1ccccc12)N[C@@H](C(=O)O)c1ccccc1`, the “hERG current change (%, negative = inhibition) at 10uM” value is reported as -1.27%. `S=C(NCc1ccncc1)Nc1ccc(Cl)cc1Cl` was tested, and the “hERG current change (%, negative = inhibition) at 10uM” value was 3.3%. For `O=C(O)c1ccccc1N(Cc1ccccc1)C(=O)COc1ccccc1`, the “hERG current change (%, negative = inhibition) at 10uM” value was 10.8%. For `O=C(Cc1c[nH]c2ccccc12)NC1(C(=O)NC2CCCCC2)CCCCC1`, the “hERG current change (%, negative = inhibition) at 10uM” value was -4.74%. With `O=C(CSc1nc2ccc(Cl)cc2[nH]1)NCc1ccco1` the “hERG current change (%, negative = inhibition) at 10uM” value was -51.8%. With `CCC(CC)C(=O)Nc1c2cnn(-c3ccccc3)c2nc(=O)n1-c1ccccc1` the “hERG current change (%, negative = inhibition) at 10uM” value was 10.7%. With `Cc1ccc(S(=O)(=O)N/N=C\c2cc([N+](=O)[O-])ccc2Cl)cc1` the “hERG current change (%, negative = inhibition) at 10uM” value was 12.3%. `Cc1ccc2cccc(S(=O)(=O)Nc3c(C)n(C)n(-c4ccccc4)c3=O)c2n1` was tested, and the “hERG current change (%, negative = inhibition) at 10uM” value was -0.878%. With `O=C(COC(=O)/C=C/c1cccc(C(F)(F)F)c1)NCc1cccs1` the “hERG current change (%, negative = inhibition) at 10uM” value was 2.72%. `CCOC(=O)c1[nH]c(C)c(C(=O)OCCN2C(=O)c3ccccc3C2=O)c1C` was tested, and the “hERG current change (%, negative = inhibition) at 10uM” value was -1.16%. `COc1cc2c(cc1OC)C(C(=O)Nc1cc(OC)c(OC)c(OC)c1)C(c1cccnc1)N(C)C2=O` (stereo not shown) was tested, and the “hERG current change (%, negative = inhibition) at 10uM” value was -1.11%. `CCOC(=O)C1=C(C)N=c2s/c(=C/c3ccc(OCC(=O)O)cc3)c(=O)n2C1c1ccc(OC)cc1OC` (stereo not shown) was tested, and the “hERG current change (%, negative = inhibition) at 10uM” value was 14.4%. With `CCOC(=O)CSc1ncc(-c2ccc([N+](=O)[O-])cc2)[nH]1` the “hERG current change (%, negative = inhibition) at 10uM” value was -61%. With `Cc1cccn2c(=O)nc(SCC(=O)NCc3ccc4c(c3)OCO4)nc12` the “hERG current change (%, negative = inhibition) at 10uM” value was -27.1%. `Cc1ccc(C(=O)Nc2cccc3ccccc23)cc1` was tested, and the “hERG current change (%, negative = inhibition) at 10uM” value was 12.5%. With `COc1cc(OC)c(N(C)S(=O)(=O)c2cccc(C(=O)Nc3nnc(C4CC4)s3)c2)cc1Cl` the “hERG current change (%, negative = inhibition) at 10uM” value was -1.32%. `N#Cc1c(N)n(CCNC(=O)c2ccccc2)c2nc3ccccc3nc12` was tested, and the “hERG current change (%, negative = inhibition) at 10uM” value was 22.8%. With `Cc1ccc(OCC(=O)Nc2ccc3c(c2)nc(CCN2CCN(C)CC2)n3C)cc1` the “hERG current change (%, negative = inhibition) at 10uM” value was -55.6%. With `N#Cc1c(N)nc2c(c1-c1cccc(O)c1)CCCCCC2` the “hERG current change (%, negative = inhibition) at 10uM” value was -7.92%. In the case of `CCc1ccc(NC(=O)C(=O)NNC(=O)c2cccc(OC)c2)cc1`, the “hERG current change (%, negative = inhibition) at 10uM” value is reported as -3.43%. `CCN(CC)c1ccc(/C=C(\C#N)C(=O)c2ccc(Br)cc2)cc1` was tested, and the “hERG current change (%, negative = inhibition) at 10uM” value was 5.89%. In the case of `O=C(Nc1ccsc1C(=O)N1CCCC1)c1ccccc1`, the “hERG current change (%, negative = inhibition) at 10uM” value is reported as 6.81%. `c1ccc(-n2ncc3c(N4CCC5(CC4)OCCO5)ncnc32)cc1` was tested, and the “hERG current change (%, negative = inhibition) at 10uM” value was 0.94%. With `O=C(CSc1nnc(-c2cccnc2)n1Cc1ccco1)c1ccc2ccccc2c1` the “hERG current change (%, negative = inhibition) at 10uM” value was -45.6%. `O=c1c2cc(Cl)ccc2[nH]c(=S)n1Cc1cccs1` was tested, and the “hERG current change (%, negative = inhibition) at 10uM” value was -5.85%. In the case of `CCOC(=O)c1nn(-c2cccc(Cl)c2)c2nc(CC(C)C)c(C#N)c(=O)n12`, the “hERG current change (%, negative = inhibition) at 10uM” value is reported as -4.52%. With `O=C(N/N=C/C=C\c1cccc([N+](=O)[O-])c1)c1cccnc1` the “hERG current change (%, negative = inhibition) at 10uM” value was -13.2%. With `Cc1ccc(COC(=O)c2cc(S(=O)(=O)N3CCCCC3)ccc2N2CCOCC2)cc1` the “hERG current change (%, negative = inhibition) at 10uM” value was -13.9%. In the case of `CCn1c(CSc2nnc(-c3ccoc3C)n2C)nc2cc(S(=O)(=O)N(C)C)ccc21`, the “hERG current change (%, negative = inhibition) at 10uM” value is reported as 8.81%. For `CC(=O)c1cc(F)c(N2CCN(C(=O)c3ccco3)CC2)cc1C`, the “hERG current change (%, negative = inhibition) at 10uM” value was -18.5%. For `COc1ccc2c(c1)c(=O)oc1c(C)c(OCC(=O)N3CCc4ccccc4C3)ccc12`, the “hERG current change (%, negative = inhibition) at 10uM” value was 7.06%. With `O=C(Nc1ccc(Br)cc1Br)C1CC(=O)N(Cc2ccccc2)C1` (stereo not shown) the “hERG current change (%, negative = inhibition) at 10uM” value was 10.7%. With `CCOC(=O)C(NC(C)=O)(Nc1ccc(S(=O)(=O)Nc2cc(C)on2)cc1)C(F)(F)F` (stereo not shown) the “hERG current change (%, negative = inhibition) at 10uM” value was 5.6%. In the case of `CSc1nnc(NC(=O)c2ccc3c(c2)OCO3)s1`, the “hERG current change (%, negative = inhibition) at 10uM” value is reported as 13.3%. For `CC(=O)c1ccc(OCC(=O)N(CCC2=CCCCC2)c2c(N)n(Cc3ccccc3)c(=O)[nH]c2=O)cc1`, the “hERG current change (%, negative = inhibition) at 10uM” value was -19.6%. `CC(=O)N/C(N)=N/c1nc(=O)c2ccccc2s1` was tested, and the “hERG current change (%, negative = inhibition) at 10uM” value was 12.1%.
